{"source": "the supplement of paper PMC8728848", "binders": {"B1": {"name": "MGL6A (Homo sapiens) (protein)", "chain": "MTRTYENFQYLENKVKVQGFKNGPLPLQSLLQRLCSGPCHLLLSLGLGLLLLVIICVVGFQNSKFQRDLVTLRTDFSNFTSNTVAEIQALTSQGSSLEETIASLKAEVEGFKQERQAVHSEMLLRVQQLVQDLKKLTCQVATLNNNGEEASTEGTCCPVNWVEHQDSCYWFSHSGMSWAEAEKYCQLKNAHLVVINSREEQNFVQKYLGSAYTWMGLSDPEGAWKWVDGTDYATGFQNWKPGQPDDWQGHGLGGGEDCAHFTPDGRWNDDVCQRPYHWVCEAGLGQTSQESH"}}, "test_in_all_cases": "glycan array binding signal (z-score within array); higher = stronger binding", "conditions_in_all_cases": "glycan notation: IUPAC condensed, linker removed; mutation: H262T", "key": {"[1]": {"target": "Man(a1-3)[Man(a1-6)]Man(a1-6)[Man(a1-2)Man(a1-3)]Man(b1-4)GlcNAc(b1-4)GlcNAc", "summary_of_the_method": "(§1)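 Glycan array data came from 3228 arrays in the Consortium for Functional Glycomics database, and only arrays with an available protein sequence were kept. Glycan names were put into IUPAC-condensed notation, and columns mapping to the same glycan were averaged. The binding signal is a within-array Z-score, averaged across arrays of one protein sequence run at different concentrations or buffers and across linkers. A negative Z-score can be read as non-binding.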"}, "[2]": {"target": "Man(a1-3)[Man(a1-6)]Man(a1-6)[Man(a1-3)]Man", "summary_of_the_method": "as §1"}, "[3]": {"target": "Man(a1-3)[Man(a1-6)]Man(a1-6)[Man(a1-3)]Man(b1-4)GlcNAc(b1-4)GlcNAc", "summary_of_the_method": "as §1"}, "[4]": {"target": "Man(a1-3)[Man(a1-6)]Man(b1-4)GlcNAc(b1-4)GlcNAc", "summary_of_the_method": "as §1"}, "[5]": {"target": "Man(a1-3)[Man(a1-6)]Man(b1-4)GlcNAc(b1-4)[Fuc(a1-6)]GlcNAc", "summary_of_the_method": "as §1"}, "Man(a1-6)Man": {"target": "Man(a1-6)Man", "summary_of_the_method": "as §1"}, "Man(b1-4)GlcNAc": {"target": "Man(b1-4)GlcNAc", "summary_of_the_method": "as §1"}, "MurNAc(b1-4)GlcNAc": {"target": "MurNAc(b1-4)GlcNAc", "summary_of_the_method": "as §1"}, "Neu5Ac(a2-3)Gal": {"target": "Neu5Ac(a2-3)Gal", "summary_of_the_method": "as §1"}, "[6]": {"target": "Neu5Ac(a2-3)Gal(b1-3)GalNAc", "summary_of_the_method": "as §1"}, "[7]": {"target": "Neu5Ac(a2-3)Gal(b1-3)GalNAc(b1-3)Gal(a1-4)Gal(b1-4)Glc", "summary_of_the_method": "as §1"}, "[8]": {"target": "Neu5Ac(a2-3)Gal(b1-3)GalNAc(b1-4)[Neu5Ac(a2-3)]Gal(b1-4)Glc", "summary_of_the_method": "as §1"}, "[9]": {"target": "Neu5Ac(a2-3)Gal(b1-3)GalNAc(b1-4)[Neu5Ac(a2-8)Neu5Ac(a2-3)]Gal(b1-4)Glc", "summary_of_the_method": "as §1"}, "[10]": {"target": "Neu5Ac(a2-3)Gal(b1-3)GalNAc6S", "summary_of_the_method": "as §1"}, "[11]": {"target": "Neu5Ac(a2-3)Gal(b1-3)GlcNAc", "summary_of_the_method": "as §1"}, "[12]": {"target": "Neu5Ac(a2-3)Gal(b1-3)GlcNAc(b1-2)Man", "summary_of_the_method": "as §1"}, "[13]": {"target": "Neu5Ac(a2-3)Gal(b1-3)GlcNAc(b1-2)Man(a1-3)[GlcNAc(b1-4)][Neu5Ac(a2-3)Gal(b1-3)GlcNAc(b1-2)Man(a1-6)]Man(b1-4)GlcNAc(b1-4)GlcNAc", "summary_of_the_method": "as §1"}, "[14]": {"target": "Neu5Ac(a2-3)Gal(b1-3)GlcNAc(b1-2)Man(a1-3)[Neu5Ac(a2-3)Gal(b1-3)GlcNAc(b1-2)Man(a1-6)]Man(b1-4)GlcNAc(b1-4)GlcNAc", "summary_of_the_method": "as §1"}, "[15]": {"target": "Neu5Ac(a2-3)Gal(b1-3)GlcNAc(b1-2)[Neu5Ac(a2-3)Gal(b1-3)GlcNAc(b1-4)]Man(a1-6)[Neu5Ac(a2-3)Gal(b1-3)GlcNAc(b1-2)Man(a1-3)]Man(b1-4)GlcNAc(b1-4)GlcNAc", "summary_of_the_method": "as §1"}, "[16]": {"target": "Neu5Ac(a2-3)Gal(b1-3)GlcNAc(b1-3)Gal(b1-3)GlcNAc", "summary_of_the_method": "as §1"}, "[17]": {"target": "Neu5Ac(a2-3)Gal(b1-3)GlcNAc(b1-3)Gal(b1-4)GlcNAc", "summary_of_the_method": "as §1"}, "[18]": {"target": "Neu5Ac(a2-3)Gal(b1-3)GlcNAc(b1-3)GalNAc", "summary_of_the_method": "as §1"}, "[19]": {"target": "Neu5Ac(a2-3)Gal(b1-3)GlcNAc(b1-4)Gal(b1-4)Glc", "summary_of_the_method": "as §1"}, "[20]": {"target": "Neu5Ac(a2-3)Gal(b1-3)GlcNAc(b1-6)GalNAc", "summary_of_the_method": "as §1"}, "[21]": {"target": "Neu5Ac(a2-3)Gal(b1-3)GlcNAc6S", "summary_of_the_method": "as §1"}, "[22]": {"target": "Neu5Ac(a2-3)Gal(b1-3)[Fuc(a1-4)]GlcNAc", "summary_of_the_method": "as §1"}, "[23]": {"target": "Neu5Ac(a2-3)Gal(b1-3)[Fuc(a1-4)]GlcNAc(b1-3)Gal(b1-3)[Fuc(a1-4)]GlcNAc", "summary_of_the_method": "as §1"}, "[24]": {"target": "Neu5Ac(a2-3)Gal(b1-3)[Fuc(a1-4)]GlcNAc(b1-3)Gal(b1-4)[Fuc(a1-3)]GlcNAc", "summary_of_the_method": "as §1"}, "[25]": {"target": "Neu5Ac(a2-3)Gal(b1-3)[GlcNAc(b1-6)]GalNAc", "summary_of_the_method": "as §1"}, "[26]": {"target": "Neu5Ac(a2-3)Gal(b1-3)[Neu5Ac(a2-6)]GalNAc", "summary_of_the_method": "as §1"}, "[27]": {"target": "Neu5Ac(a2-3)Gal(b1-3)[Neu5Ac(a2-6)]GlcNAc(b1-3)[Fuc(a1-3)[Gal(b1-4)]GlcNAc(b1-6)]Gal(b1-4)Glc", "summary_of_the_method": "as §1"}, "[28]": {"target": "Neu5Ac(a2-3)Gal(b1-3)]Neu5Ac(a2-3)Gal(b1-4)]GlcNAc", "summary_of_the_method": "as §1"}, "Neu5Ac(a2-3)Gal(b1-4)Glc": {"target": "Neu5Ac(a2-3)Gal(b1-4)Glc", "summary_of_the_method": "as §1"}, "[29]": {"target": "Neu5Ac(a2-3)Gal(b1-4)GlcNAc", "summary_of_the_method": "as §1"}, "[30]": {"target": "Neu5Ac(a2-3)Gal(b1-4)GlcNAc(b1-2)Man", "summary_of_the_method": "as §1"}, "[31]": {"target": "Neu5Ac(a2-3)Gal(b1-4)GlcNAc(b1-2)Man(a1-3)[GlcNAc(b1-4)][Neu5Ac(a2-3)Gal(b1-4)GlcNAc(b1-2)Man(a1-6)]Man(b1-4)GlcNAc(b1-4)GlcNAc", "summary_of_the_method": "as §1"}, "[32]": {"target": "Neu5Ac(a2-3)Gal(b1-4)GlcNAc(b1-2)Man(a1-3)[Neu5Ac(a2-3)Gal(b1-4)GlcNAc(b1-2)Man(a1-6)]Man(b1-4)GlcNAc(b1-4)GlcNAc", "summary_of_the_method": "as §1"}, "[33]": {"target": "Neu5Ac(a2-3)Gal(b1-4)GlcNAc(b1-2)Man(a1-3)[Neu5Ac(a2-3)Gal(b1-4)GlcNAc(b1-2)Man(a1-6)]Man(b1-4)GlcNAc(b1-4)[Fuc(a1-6)]GlcNAc", "summary_of_the_method": "as §1"}}, "note": "The list shows a part of the results."}
{"binder": "B1", "values": [{"measurement": "glycan array binding signal (z-score)", "setting": "[1]", "value": -0.153}, {"measurement": "glycan array binding signal (z-score)", "setting": "[2]", "value": -0.167}, {"measurement": "glycan array binding signal (z-score)", "setting": "[3]", "value": -0.163}, {"measurement": "glycan array binding signal (z-score)", "setting": "[4]", "value": -0.176}, {"measurement": "glycan array binding signal (z-score)", "setting": "[5]", "value": -0.172}, {"measurement": "glycan array binding signal (z-score)", "setting": "Man(a1-6)Man", "value": -0.176}, {"measurement": "glycan array binding signal (z-score)", "setting": "Man(b1-4)GlcNAc", "value": -0.172}, {"measurement": "glycan array binding signal (z-score)", "setting": "MurNAc(b1-4)GlcNAc", "value": -0.172}, {"measurement": "glycan array binding signal (z-score)", "setting": "Neu5Ac(a2-3)Gal", "value": -0.177}, {"measurement": "glycan array binding signal (z-score)", "setting": "[6]", "value": -0.16}, {"measurement": "glycan array binding signal (z-score)", "setting": "[7]", "value": -0.176}, {"measurement": "glycan array binding signal (z-score)", "setting": "[8]", "value": -0.172}, {"measurement": "glycan array binding signal (z-score)", "setting": "[9]", "value": -0.177}, {"measurement": "glycan array binding signal (z-score)", "setting": "[10]", "value": -0.171}, {"measurement": "glycan array binding signal (z-score)", "setting": "[11]", "value": -0.176}, {"measurement": "glycan array binding signal (z-score)", "setting": "[12]", "value": -0.176}, {"measurement": "glycan array binding signal (z-score)", "setting": "[13]", "value": -0.177}, {"measurement": "glycan array binding signal (z-score)", "setting": "[14]", "value": -0.174}, {"measurement": "glycan array binding signal (z-score)", "setting": "[15]", "value": -0.175}, {"measurement": "glycan array binding signal (z-score)", "setting": "[16]", "value": -0.177}, {"measurement": "glycan array binding signal (z-score)", "setting": "[17]", "value": -0.176}, {"measurement": "glycan array binding signal (z-score)", "setting": "[18]", "value": -0.173}, {"measurement": "glycan array binding signal (z-score)", "setting": "[19]", "value": -0.175}, {"measurement": "glycan array binding signal (z-score)", "setting": "[20]", "value": 2.9}, {"measurement": "glycan array binding signal (z-score)", "setting": "[21]", "value": -0.17}, {"measurement": "glycan array binding signal (z-score)", "setting": "[22]", "value": -0.178}, {"measurement": "glycan array binding signal (z-score)", "setting": "[23]", "value": -0.172}, {"measurement": "glycan array binding signal (z-score)", "setting": "[24]", "value": -0.157}, {"measurement": "glycan array binding signal (z-score)", "setting": "[25]", "value": -0.31}, {"measurement": "glycan array binding signal (z-score)", "setting": "[26]", "value": -0.177}, {"measurement": "glycan array binding signal (z-score)", "setting": "[27]", "value": -0.17}, {"measurement": "glycan array binding signal (z-score)", "setting": "[28]", "value": -0.169}, {"measurement": "glycan array binding signal (z-score)", "setting": "Neu5Ac(a2-3)Gal(b1-4)Glc", "value": -0.166}, {"measurement": "glycan array binding signal (z-score)", "setting": "[29]", "value": -0.178}, {"measurement": "glycan array binding signal (z-score)", "setting": "[30]", "value": -0.155}, {"measurement": "glycan array binding signal (z-score)", "setting": "[31]", "value": -0.176}, {"measurement": "glycan array binding signal (z-score)", "setting": "[32]", "value": -0.123}, {"measurement": "glycan array binding signal (z-score)", "setting": "[33]", "value": -0.17}]}
